In the test the target is T1, FLAG-tagged Monarch-1 (human, UniProt P59046 1-1061).
T1 construct: Expressed in transfected 293T cells and immunoprecipitated from lysate with anti-FLAG M2-agarose; also called FLAG-Monarch-1; Caterpiller 19.3; not shown: N-terminal FLAG tag added by PCR
T1 sequence: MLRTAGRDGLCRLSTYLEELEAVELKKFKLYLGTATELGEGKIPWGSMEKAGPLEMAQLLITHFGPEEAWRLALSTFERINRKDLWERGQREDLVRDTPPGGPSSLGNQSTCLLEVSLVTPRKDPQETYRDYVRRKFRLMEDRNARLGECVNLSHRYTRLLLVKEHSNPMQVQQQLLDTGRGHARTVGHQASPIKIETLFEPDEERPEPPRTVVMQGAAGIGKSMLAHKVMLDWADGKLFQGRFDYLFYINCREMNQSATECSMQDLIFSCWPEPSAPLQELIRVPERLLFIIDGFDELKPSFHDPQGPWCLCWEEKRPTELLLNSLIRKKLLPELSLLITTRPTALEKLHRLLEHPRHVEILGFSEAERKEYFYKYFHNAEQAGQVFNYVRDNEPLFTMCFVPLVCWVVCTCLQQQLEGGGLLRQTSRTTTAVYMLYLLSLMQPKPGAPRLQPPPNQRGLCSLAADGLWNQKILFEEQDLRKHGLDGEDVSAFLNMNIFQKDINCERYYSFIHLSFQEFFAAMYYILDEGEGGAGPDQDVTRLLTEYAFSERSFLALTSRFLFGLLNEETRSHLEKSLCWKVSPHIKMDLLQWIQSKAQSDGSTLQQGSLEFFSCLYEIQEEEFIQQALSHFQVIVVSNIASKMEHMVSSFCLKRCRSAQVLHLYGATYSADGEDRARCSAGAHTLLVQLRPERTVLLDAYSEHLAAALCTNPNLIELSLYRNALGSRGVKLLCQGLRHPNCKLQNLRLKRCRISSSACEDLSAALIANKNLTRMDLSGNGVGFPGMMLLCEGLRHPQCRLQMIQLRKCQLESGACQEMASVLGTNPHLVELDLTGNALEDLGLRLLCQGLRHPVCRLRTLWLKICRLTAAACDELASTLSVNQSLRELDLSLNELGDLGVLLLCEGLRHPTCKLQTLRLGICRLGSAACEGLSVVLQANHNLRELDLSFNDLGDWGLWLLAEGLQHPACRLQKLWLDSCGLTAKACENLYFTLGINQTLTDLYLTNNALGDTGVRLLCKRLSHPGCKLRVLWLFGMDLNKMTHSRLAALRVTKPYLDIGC
Description: co-immunoprecipitation from transfected 293T cells (anti-FLAG M2-agarose IP, anti-HA western blot). The method, then: Transfections and Immunoprecipitations. 2.5 million 293T cells were seeded in 10-cm cell culture plates. Eighteen to twenty-four hours later, 3 μg of each of the indicated plasmids was transfected using FUGENE6™ (Roche, Indianapolis, Ind.) at a 3:1 FUGENE6™ to DNA ratio and the cells were incubated an additional 18 to 24 hours. Cells were lysed in 0.5% NP-40, 150 mM NaCl, 50 mM Tris pH 8.0, 160 mM EDTA, 50 mM NaF, 10 mM sodium phosphate supplemented with protease inhibitor cocktail (Roche, Indianapolis, Ind.). Nuclei were removed and the resulting supernatant was pre-cleared with mouse IgG-conjugated agarose (Sigma, St. Louis) for 1 hour. FLAG®-tagged proteins were subsequently immunoprecipitated overnight with 35 μl M2-agarose equilibrated in lysis buffer. Beads were washed four times in lysis buffer and proteins eluted in sample buffer (20% Glycerol, 4% SDS, 130 mM Tris pH 6.8, 20 mM DTT) for western blot analysis.
Monarch-1 Associates with TRAF6 but not MyD88 or IRAK1. In addition to the proteins identified by MALDI-MS, 293T cells were transfected with Monarch-1 cDNA and one of the following: HA-MyD88, HA-TRAF6, or HA-IRAK1. Twenty-four hours later the cells were lysed and Monarch-1-containing protein complexes were immunoprecipitated with anti-FLAG® M2-agarose beads overnight. […]

The values below come from US20060053496A1 (UNIVERSITY OF NORTH CAROLINA AT CHAPEL HILL, published 2006).

B1: HA-MyD88 (other, human, UniProt Q99836 1-296, looked up)
chain: MAAGGPGAGSAAPVSSTSSLPLAALNMRVRRRLSLFLNVRTQVAADWTALAEEMDFEYLEIRQLETQADPTGRLLDAWQGRPGASVGRLLELLTKLGRDDVLLELGPSIEEDCQKYILKQQQEEAEKPLQVAAVDSSVPRTAELAGITTLDDPLGHMPERFDAFICYCPSDIQFVQEMIRQLEQTNYRLKLCVSDRDVLPGTCVWSIASELIEKRCRRMVVVVSDDYLQSKECDFQTKFALSLSPGAHQKRLIPIKYKAMKKEFPSILRFITVCDYTNPCTKSWFWTRLAKALSLP
notes: not shown: double 5' (N-terminal) HA tag
In the case of B1, the binding result is listed as “no binding”.
